# Laboratory results from the supplement of paper PMC8728848.
# The list shows a part of the results.
# How the values were obtained:
# Experiment in all cases: glycan array binding signal (z-score within array); higher = stronger binding
# Conditions in all cases: glycan notation: IUPAC condensed, linker removed
# [1] = target: GlcNAc(b1-4)GlcNAc
# Summary of the method: (§1)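 Glycan array data were curated from 3228 arrays in the Consortium for Functional Glycomics database and kept only where the protein sequence was available. Glycan names were converted to IUPAC-condensed notation, and columns mapping to the same glycan were averaged. The binding signal is a within-array Z-score, averaged across arrays of the same protein sequence at different concentrations or buffers and across linkers. Negative Z-scores can be read as non-binding.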
# [2] = target: GlcNAc(b1-4)GlcNAc(b1-4)GlcNAc
# Summary of the method: as §1
# [3] = target: GlcNAc(b1-4)GlcNAc(b1-4)GlcNAc(b1-4)GlcNAc(b1-4)GlcNAc
# Summary of the method: as §1
# [4] = target: GlcNAc(b1-4)GlcNAc(b1-4)GlcNAc(b1-4)GlcNAc(b1-4)GlcNAc(b1-4)GlcNAc
# Summary of the method: as §1
# [5] = target: GlcNAc(b1-4)[GlcNAc(b1-6)]GalNAc
# Summary of the method: as §1
# [6] = target: GlcNAc(b1-6)Gal(b1-4)GlcNAc
# Summary of the method: as §1
# [7] = target: GlcNAc(b1-6)GalNAc
# Summary of the method: as §1
# [8] = target: GlcNAc3Prop(b1-4)GlcNAc
# Summary of the method: as §1
# [9] = target: GlcNAc6S(b1-3)Gal(b1-4)GlcNAc
# Summary of the method: as §1
# [10] = target: Kdn(a2-3)Gal(b1-3)GalNAc
# Summary of the method: as §1
# [11] = target: Kdn(a2-3)Gal(b1-3)GlcNAc
# Summary of the method: as §1
# [12] = target: Kdn(a2-3)Gal(b1-4)Glc
# Summary of the method: as §1
# [13] = target: Kdn(a2-3)Gal(b1-4)GlcNAc
# Summary of the method: as §1
# [14] = target: Kdn(a2-3)Gal(b1-4)[Fuc(a1-3)]GlcNAc
# Summary of the method: as §1
# [15] = target: Kdn(a2-6)Gal(b1-4)GlcNAc
# Summary of the method: as §1
# [16] = target: Man(a1-2)Man(a1-2)Man(a1-3)Man
# Summary of the method: as §1
# [17] = target: Man(a1-2)Man(a1-2)Man(a1-6)[Man(a1-3)]Man
# Summary of the method: as §1
# [18] = target: Man(a1-2)Man(a1-3)Man
# Summary of the method: as §1
# [19] = target: Man(a1-2)Man(a1-3)[Man(a1-2)Man(a1-6)]Man
# Summary of the method: as §1
# [20] = target: Man(a1-2)Man(a1-3)[Man(a1-2)Man(a1-6)]Man(a1-6)[Man(a1-2)Man(a1-2)Man(a1-3)]Man
# Summary of the method: as §1
# [21] = target: Man(a1-2)Man(a1-3)[Man(a1-2)Man(a1-6)]Man(a1-6)[Man(a1-2)Man(a1-2)Man(a1-3)]Man(b1-4)GlcNAc(b1-4)GlcNAc
# Summary of the method: as §1
# [22] = target: Man(a1-2)Man(a1-3)[Man(a1-6)]Man(a1-6)[Man(a1-2)Man(a1-3)]Man(b1-4)GlcNAc(b1-4)GlcNAc
# Summary of the method: as §1
# [23] = target: Man(a1-2)Man(a1-6)[Man(a1-3)]Man(a1-6)[Man(a1-2)Man(a1-2)Man(a1-3)]Man
# Summary of the method: as §1
# [24] = target: Man(a1-2)Man(a1-6)[Man(a1-3)]Man(a1-6)[Man(a1-2)Man(a1-2)Man(a1-3)]Man(b1-4)GlcNAc(b1-4)GlcNAc
# Summary of the method: as §1
# [25] = target: Man(a1-3)[Man(a1-6)]Man
# Summary of the method: as §1
# [26] = target: Man(a1-3)[Man(a1-6)]Man(a1-6)[Man(a1-2)Man(a1-3)]Man(b1-4)GlcNAc(b1-4)GlcNAc
# Summary of the method: as §1
# [27] = target: Man(a1-3)[Man(a1-6)]Man(a1-6)[Man(a1-3)]Man
# Summary of the method: as §1
# [28] = target: Man(a1-3)[Man(a1-6)]Man(a1-6)[Man(a1-3)]Man(b1-4)GlcNAc(b1-4)GlcNAc
# Summary of the method: as §1
# [29] = target: Man(a1-3)[Man(a1-6)]Man(b1-4)GlcNAc(b1-4)GlcNAc
# Summary of the method: as §1
# [30] = target: Man(a1-6)Man
# Summary of the method: as §1
# [31] = target: Man(b1-4)GlcNAc
# Summary of the method: as §1
# [32] = target: Neu5Ac(a2-3)Gal
# Summary of the method: as §1
# [33] = target: Neu5Ac(a2-3)Gal(b1-3)GalNAc
# Summary of the method: as §1
# [34] = target: Neu5Ac(a2-3)Gal(b1-3)GalNAc(b1-3)Gal(a1-4)Gal(b1-4)Glc
# Summary of the method: as §1
# [35] = target: Neu5Ac(a2-3)Gal(b1-3)GalNAc(b1-3)Gal(b1-4)GlcNAc
# Summary of the method: as §1
# [36] = target: Neu5Ac(a2-3)Gal(b1-3)GalNAc(b1-4)[Neu5Ac(a2-3)]Gal(b1-4)Glc
# Summary of the method: as §1
# [37] = target: Neu5Ac(a2-3)Gal(b1-3)GalNAc6S
# Summary of the method: as §1
# [38] = target: Neu5Ac(a2-3)Gal(b1-3)GlcNAc
# Summary of the method: as §1
# [39] = target: Neu5Ac(a2-3)Gal(b1-3)GlcNAc(b1-3)Gal(b1-3)GlcNAc
# Summary of the method: as §1
# [40] = target: Neu5Ac(a2-3)Gal(b1-3)GlcNAc6S
# Summary of the method: as §1
# [41] = target: Neu5Ac(a2-3)Gal(b1-3)[Fuc(a1-4)]GlcNAc
# Summary of the method: as §1
# [42] = target: Neu5Ac(a2-3)Gal(b1-3)[Fuc(a1-4)]GlcNAc(b1-3)Gal(b1-3)[Fuc(a1-4)]GlcNAc
# Summary of the method: as §1
# [43] = target: Neu5Ac(a2-3)Gal(b1-3)[Fuc(a1-4)]GlcNAc(b1-3)Gal(b1-4)[Fuc(a1-3)]GlcNAc
# Summary of the method: as §1
# [44] = target: Neu5Ac(a2-3)Gal(b1-3)[Neu5Ac(a2-3)Gal(b1-4)]GlcNAc
# Summary of the method: as §1
# [45] = target: Neu5Ac(a2-3)Gal(b1-3)[Neu5Ac(a2-6)]GalNAc
# Summary of the method: as §1
# [46] = target: Neu5Ac(a2-3)Gal(b1-4)Glc
# Summary of the method: as §1
# [47] = target: Neu5Ac(a2-3)Gal(b1-4)GlcNAc
# Summary of the method: as §1
# [48] = target: Neu5Ac(a2-3)Gal(b1-4)GlcNAc(b1-2)Man(a1-3)[GlcNAc(b1-2)Man(b1-4)GlcNAc(b1-2)Man(a1-6)]Man(b1-4)GlcNAc(b1-4)GlcNAc
# Summary of the method: as §1
# [49] = target: Neu5Ac(a2-3)Gal(b1-4)GlcNAc(b1-2)Man(a1-3)[Neu5Ac(a2-6)Gal(b1-4)GlcNAc(b1-2)Man(a1-6)]Man(b1-4)GlcNAc(b1-4)GlcNAc
# Summary of the method: as §1
# [50] = target: Neu5Ac(a2-3)Gal(b1-4)GlcNAc(b1-3)Gal(b1-3)GlcNAc
# Summary of the method: as §1
# [51] = target: Neu5Ac(a2-3)Gal(b1-4)GlcNAc(b1-3)Gal(b1-4)GlcNAc
# Summary of the method: as §1
# [52] = target: Neu5Ac(a2-3)Gal(b1-4)GlcNAc(b1-3)Gal(b1-4)GlcNAc(b1-3)Gal(b1-4)GlcNAc
# Summary of the method: as §1
# [53] = target: Neu5Ac(a2-3)Gal(b1-4)GlcNAc(b1-3)Gal(b1-4)[Fuc(a1-3)]GlcNAc
# Summary of the method: as §1
# [54] = target: Neu5Ac(a2-3)Gal(b1-4)GlcNAc(b1-3)GalNAc
# Summary of the method: as §1
# [55] = target: Neu5Ac(a2-3)Gal(b1-4)GlcNAc(b1-6)[Gal(b1-3)]GalNAc
# Summary of the method: as §1
# [56] = target: Neu5Ac(a2-3)Gal(b1-4)GlcNAc(b1-6)[Neu5Ac(a2-3)Gal(b1-3)]GalNAc
# Summary of the method: as §1
# [57] = target: Neu5Ac(a2-3)Gal(b1-4)GlcNAc6S
# Summary of the method: as §1
binder,measurement,setting,value
"DC-SIGN (Canis lupus), XP_853402 (protein) AGLCRPCPWKWELFQESCYFFSQTQNTWKESISACQNLRAQLVIINSTEEQKFLKSWNTRNNQRTWIGLSDHHNEGSWKWVDNTPLQLSFWKEGEPNNHGDEDCVELYSDGWNDNRCSTENFWICKKPSSPCPGPGLNDIFEAQKIEWHE",glycan array binding signal (z-score),[1],-0.177
same,glycan array binding signal (z-score),[2],-0.266
same,glycan array binding signal (z-score),[3],-0.267
same,glycan array binding signal (z-score),[4],-0.109
same,glycan array binding signal (z-score),[5],-0.336
same,glycan array binding signal (z-score),[6],-0.165
same,glycan array binding signal (z-score),[7],-0.014
same,glycan array binding signal (z-score),[8],-0.304
same,glycan array binding signal (z-score),[9],-0.305
same,glycan array binding signal (z-score),[10],-0.257
same,glycan array binding signal (z-score),[11],-0.152
same,glycan array binding signal (z-score),[12],-0.305
same,glycan array binding signal (z-score),[13],-0.288
same,glycan array binding signal (z-score),[14],-0.162
same,glycan array binding signal (z-score),[15],-0.26
same,glycan array binding signal (z-score),[16],7.92
same,glycan array binding signal (z-score),[17],0.141
same,glycan array binding signal (z-score),[18],0.094
same,glycan array binding signal (z-score),[19],3.37
same,glycan array binding signal (z-score),[20],7.69
same,glycan array binding signal (z-score),[21],4.83
same,glycan array binding signal (z-score),[22],2.86
same,glycan array binding signal (z-score),[23],1.56
same,glycan array binding signal (z-score),[24],-0.361
same,glycan array binding signal (z-score),[25],-0.103
same,glycan array binding signal (z-score),[26],11.8
same,glycan array binding signal (z-score),[27],-0.277
same,glycan array binding signal (z-score),[28],0.127
same,glycan array binding signal (z-score),[29],-0.281
same,glycan array binding signal (z-score),[30],-0.096
same,glycan array binding signal (z-score),[31],-0.115
same,glycan array binding signal (z-score),[32],-0.172
same,glycan array binding signal (z-score),[33],-0.324
same,glycan array binding signal (z-score),[34],0.708
same,glycan array binding signal (z-score),[35],-0.191
same,glycan array binding signal (z-score),[36],-0.157
same,glycan array binding signal (z-score),[37],-0.178
same,glycan array binding signal (z-score),[38],-0.344
same,glycan array binding signal (z-score),[39],-0.147
same,glycan array binding signal (z-score),[40],0.031
same,glycan array binding signal (z-score),[41],-0.173
same,glycan array binding signal (z-score),[42],0.318
same,glycan array binding signal (z-score),[43],-0.201
same,glycan array binding signal (z-score),[44],-0.171
same,glycan array binding signal (z-score),[45],0.063
same,glycan array binding signal (z-score),[46],-0.236
same,glycan array binding signal (z-score),[47],-0.217
same,glycan array binding signal (z-score),[48],-0.275
same,glycan array binding signal (z-score),[49],-0.227
same,glycan array binding signal (z-score),[50],-0.222
same,glycan array binding signal (z-score),[51],-0.348
same,glycan array binding signal (z-score),[52],-0.19
same,glycan array binding signal (z-score),[53],-0.24
same,glycan array binding signal (z-score),[54],-0.268
same,glycan array binding signal (z-score),[55],-0.163
same,glycan array binding signal (z-score),[56],-0.286
same,glycan array binding signal (z-score),[57],-0.127
